# Results reported in US20240358826A1 (ORIONIS BIOSCIENCES, published 2024).
# T1: human NKp46 (human, UniProt O76036 22-304)
# T1 sequence (looked up): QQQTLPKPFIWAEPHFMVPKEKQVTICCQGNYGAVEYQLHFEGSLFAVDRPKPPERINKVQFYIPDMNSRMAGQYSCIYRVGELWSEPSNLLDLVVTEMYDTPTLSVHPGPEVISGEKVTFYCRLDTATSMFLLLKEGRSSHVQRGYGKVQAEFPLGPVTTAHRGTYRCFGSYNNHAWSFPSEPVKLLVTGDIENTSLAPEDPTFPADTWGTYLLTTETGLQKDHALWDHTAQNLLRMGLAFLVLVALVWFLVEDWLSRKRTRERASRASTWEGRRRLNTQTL
# T2: IL-1R (IL-1 Receptor) (UniProt P14778 18-569, limits assumed)
# T2 sequence (looked up): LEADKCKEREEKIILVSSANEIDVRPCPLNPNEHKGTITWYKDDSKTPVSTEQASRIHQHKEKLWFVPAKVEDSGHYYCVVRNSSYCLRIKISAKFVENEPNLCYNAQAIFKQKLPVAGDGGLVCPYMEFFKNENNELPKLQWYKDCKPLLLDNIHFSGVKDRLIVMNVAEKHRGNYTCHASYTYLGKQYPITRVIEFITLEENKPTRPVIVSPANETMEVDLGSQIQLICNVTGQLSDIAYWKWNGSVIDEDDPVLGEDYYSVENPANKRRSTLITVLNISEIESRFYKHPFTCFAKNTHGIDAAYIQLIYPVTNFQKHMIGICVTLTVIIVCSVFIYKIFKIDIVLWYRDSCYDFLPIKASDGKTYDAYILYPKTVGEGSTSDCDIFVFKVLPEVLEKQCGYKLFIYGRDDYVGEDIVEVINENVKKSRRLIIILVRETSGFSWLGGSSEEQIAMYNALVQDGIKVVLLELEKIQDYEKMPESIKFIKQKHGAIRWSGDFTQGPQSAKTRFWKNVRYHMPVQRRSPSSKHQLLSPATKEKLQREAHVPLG
# B1: CD8 VHH_5GGS_Fc_hole + IL1a delta 1-6_20GGS_Fc-knob (Fc fusion)
# chain 1: DVQLQESGGGLVQPGGSLRLSCAASGSIFSINVMGWYRQTPGKERELVAKITNFGITSYADSAQGRFTISRGNAKNTVYLQMNSLKPEDTAVYYCNLDTTGWGPPPYQYWGQGTQVTVSSGGSGGSGGSGGSGGSDKTHTCPPCPAPEAAGGPSVFLFPPKPKDTLMISRTPEVTCVVVDVSHEDPEVKFNWYVDGVEVHNAKTKPREEQYNSTYRVVSVLTVLHQDWLNGKEYKCQVSNKALPAPIEKTISKAKGQPREPQVCTLPPSRDELTKNQVSLSCAVKGFYPSDIAVEWESNGQPENNYKTTPPVLDSDGSFFLVSKLTVDKSRWQQGNVFSCSVMHEALHNHYTQKSLSLSPGK
# chain 2: LSNVKYNFMRIIKYEFILNDALNQSIIRANDQYLTAAALHNLDEAVKFDMGAYKSSKDDAKITVILRISKTQLYVTAQDEDQPVLLKEMPEIPKTITGSETNLLFFWETHGTKNYFTSVAHPNLFIATKQDYWVCLAGGPPSITDFQILENQAGGSGGSGGSGGSGGSGGSGGSGGSGGSGGSGGSGGSGGSGGSGGSGGSGGSGGSGGSGGS[letters of human IgG1 Fc with changes not shown]
# B2: NKp46 scFv (VL-VH)_5GGS_Fc_hole + Fc-knob_20GGS_IL1α delta 1-6_S31A_C141S (Fc fusion)
# chain 1: DIQMTQTTSSLSASLGDRVTISCRASQDISNYLNWYQQKPDGTVKLLIYYTSRLHSGVPSRFSGSGSGTDYSLTINNLEQEDIATYFCQQGNTRPWTFGGGTKLEIKGGGGSGGGGSGGGGSQVQLQQSGPELVKPGASVKMSCKASGYTFTDYVINWGKQRSGQGLEWIGEIYPGSGTNYYNEKFKAKATLTADKSSNIAYMQLSSLTSEDSAVYFCARRGRYGLYAMDYWGQGTSVTVSSGGSGGSGGSGGSGGSDKTHTCPPCPAPEAAGGPSVFLFPPKPKDTLMISRTPEVTCVVVDVSHEDPEVKFNWYVDGVEVHNAKTKPREEQYNSTYRVVSVLTVLHQDWLNGKEYKCQVSNKALPAPIEKTISKAKGQPREPQVCTLPPSRDELTKNQVSLSCAVKGFYPSDIAVEWESNGQPENNYKTTPPVLDSDGSFFLVSKLTVDKSRWQQGNVFSCSVMHEALHNHYTQKSLSLSPGK
# chain 2: [letters of human IgG1 Fc with changes not shown]GGSGGSGGSGGSGGSGGSGGSGGSGGSGGSGGSGGSGGSGGSGGSGGSGGSGGSGGSGGSLSNVKYNFMRIIKYEFILNDALNQAIIRANDQYLTAAALHNLDEAVKFDMGAYKSSKDDAKITVILRISKTQLYVTAQDEDQPVLLKEMPEIPKTITGSETNLLFFWETHGTKNYFTSVAHPNLFIATKQDYWVSLAGGPPSITDFQILENQA
# B3: CD8 VHH_5GGS_Fc_hole + Fc-knob_20GGS_IL1α delta 1-6 (Fc fusion)
# chain 1: B1 chain 1
# chain 2: [letters of human IgG1 Fc with changes not shown]GGSGGSGGSGGSGGSGGSGGSGGSGGSGGSGGSGGSGGSGGSGGSGGSGGSGGSGGSGGSLSNVKYNFMRIIKYEFILNDALNQSIIRANDQYLTAAALHNLDEAVKFDMGAYKSSKDDAKITVILRISKTQLYVTAQDEDQPVLLKEMPEIPKTITGSETNLLFFWETHGTKNYFTSVAHPNLFIATKQDYWVCLAGGPPSITDFQILENQA
# B4: CD8 VHH_5GGS_Fc_hole + Fc-knob_20GGS_IL1α delta 1-6_C141S (Fc fusion)
# chain 1: B1 chain 1
# chain 2: [letters of human IgG1 Fc with changes not shown]GGSGGSGGSGGSGGSGGSGGSGGSGGSGGSGGSGGSGGSGGSGGSGGSGGSGGSGGSGGSLSNVKYNFMRIIKYEFILNDALNQSIIRANDQYLTAAALHNLDEAVKFDMGAYKSSKDDAKITVILRISKTQLYVTAQDEDQPVLLKEMPEIPKTITGSETNLLFFWETHGTKNYFTSVAHPNLFIATKQDYWVSLAGGPPSITDFQILENQA
# B5: CD8 VHH_5GGS_Fc_hole + Fc-knob_20GGS_IL1α delta 1-6_C141A (Fc fusion)
# chain 1: B1 chain 1
# chain 2: [letters of human IgG1 Fc with changes not shown]GGSGGSGGSGGSGGSGGSGGSGGSGGSGGSGGSGGSGGSGGSGGSGGSGGSGGSGGSGGSLSNVKYNFMRIIKYEFILNDALNQSIIRANDQYLTAAALHNLDEAVKFDMGAYKSSKDDAKITVILRISKTQLYVTAQDEDQPVLLKEMPEIPKTITGSETNLLFFWETHGTKNYFTSVAHPNLFIATKQDYWVALAGGPPSITDFQILENQA
# B6: CD8 VHH_5GGS_Fc_hole + Fc-knob_20GGS_IL1α delta 1-6_N29A (Fc fusion)
# chain 1: B1 chain 1
# chain 2: [letters of human IgG1 Fc with changes not shown]GGSGGSGGSGGSGGSGGSGGSGGSGGSGGSGGSGGSGGSGGSGGSGGSGGSGGSGGSGGSLSNVKYNFMRIIKYEFILNDALAQSIIRANDQYLTAAALHNLDEAVKFDMGAYKSSKDDAKITVILRISKTQLYVTAQDEDQPVLLKEMPEIPKTITGSETNLLFFWETHGTKNYFTSVAHPNLFIATKQDYWVCLAGGPPSITDFQILENQA
# B7: CD8 VHH_5GGS_Fc_hole + Fc-knob_20GGS_IL1α delta 1-6_N29G (Fc fusion)
# chain 1: B1 chain 1
# chain 2: [letters of human IgG1 Fc with changes not shown]GGSGGSGGSGGSGGSGGSGGSGGSGGSGGSGGSGGSGGSGGSGGSGGSGGSGGSGGSGGSLSNVKYNFMRIIKYEFILNDALGQSIIRANDQYLTAAALHNLDEAVKFDMGAYKSSKDDAKITVILRISKTQLYVTAQDEDQPVLLKEMPEIPKTITGSETNLLFFWETHGTKNYFTSVAHPNLFIATKQDYWVCLAGGPPSITDFQILENQA
# B8: CD8 VHH_5GGS_Fc_hole + Fc-knob_20GGS_IL1α delta 1-6_N29D (Fc fusion)
# chain 1: B1 chain 1
# chain 2: [letters of human IgG1 Fc with changes not shown]GGSGGSGGSGGSGGSGGSGGSGGSGGSGGSGGSGGSGGSGGSGGSGGSGGSGGSGGSGGSLSNVKYNFMRIIKYEFILNDALDQSIIRANDQYLTAAALHNLDEAVKFDMGAYKSSKDDAKITVILRISKTQLYVTAQDEDQPVLLKEMPEIPKTITGSETNLLFFWETHGTKNYFTSVAHPNLFIATKQDYWVCLAGGPPSITDFQILENQA
# B9: CD8 VHH_5GGS_Fc_hole + Fc-knob_20GGS_IL1α delta 1-6_S31A (Fc fusion)
# chain 1: B1 chain 1
# chain 2: [letters of human IgG1 Fc with changes not shown]GGSGGSGGSGGSGGSGGSGGSGGSGGSGGSGGSGGSGGSGGSGGSGGSGGSGGSGGSGGSLSNVKYNFMRIIKYEFILNDALNQAIIRANDQYLTAAALHNLDEAVKFDMGAYKSSKDDAKITVILRISKTQLYVTAQDEDQPVLLKEMPEIPKTITGSETNLLFFWETHGTKNYFTSVAHPNLFIATKQDYWVCLAGGPPSITDFQILENQA
# Target: T3, human CD8 alpha (human, UniProt P01732 22-235)
# Test: cell-based or functional assay
row,Binder,"EC50, CD8+ HekBlue-IL-1β cells (SEAP) [ng/mL]"
1,B1,~0.5

# Target: T1, human NKp46
# Test: cell-based or functional assay
row,Binder,"EC50, IFNγ induction on isolated NK cells (with 10 ng/ml hIL-12) [ng/mL]"
1,B2,1.2e-07

# Target: T2, IL-1R (IL-1 Receptor)
# Test: cell-based or functional assay
Binder,"NF-KB signal, -CD8 cells, 1 ng/ml","NF-KB signal, -CD8 cells, 10 ng/ml","NF-KB signal, -CD8 cells, 100 ng/ml","NF-KB signal, -CD8 cells, 1000 ng/ml"
B3,0.01 rel. to 100 ng/ml IL1α,0.03 rel. to 100 ng/ml IL1α,0.14 rel. to 100 ng/ml IL1α,0.61 rel. to 100 ng/ml IL1α
B4,0.02 rel. to 100 ng/ml IL1α,0.02 rel. to 100 ng/ml IL1α,0.17 rel. to 100 ng/ml IL1α,0.79 rel. to 100 ng/ml IL1α

# Target: T3, human CD8 alpha
# T3 sequence (P01732 22-235): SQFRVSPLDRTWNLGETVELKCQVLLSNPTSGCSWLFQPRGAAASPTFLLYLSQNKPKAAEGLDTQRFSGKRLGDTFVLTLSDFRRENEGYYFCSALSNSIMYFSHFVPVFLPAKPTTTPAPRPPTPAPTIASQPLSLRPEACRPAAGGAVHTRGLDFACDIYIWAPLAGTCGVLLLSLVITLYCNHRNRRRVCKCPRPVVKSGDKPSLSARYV
# Test: cell-based or functional assay
# Remark: another data set of the same source
Binder,"EC50 CD8 transfected (NF-KB reporter, HEK293T) [ng/mL]",Ratio (EC50 mock / CD8 transfected)
B5,1.83,1680

# Target: T2, IL-1R (IL-1 Receptor)
# Test: cell-based or functional assay
# Remark: another data set of the same source
row,Binder,"EC50 mock transfected (NF-KB reporter, HEK293T) [ng/mL]"
1,B3,2960
2,B4,569
3,B5,3080

# Target: T3, human CD8 alpha
# Test: cell-based or functional assay
# Remark: another data set of the same source
Binder,"EC50 CD8 cell line (SEAP, HekBlue-IL-1β) [ng/mL]",Ratio (EC50 parental / CD8 cell line)
B5,3.3,196
B6,0.0002,12500
B7,0.0005,6040
B8,0.27,293
B9,0.0008,4320

# Target: T2, IL-1R (IL-1 Receptor)
# Test: cell-based or functional assay
# Remark: another data set of the same source
row,Binder,"EC50 parental cell line (SEAP, HekBlue-IL-1β) [ng/mL]"
1,B3,349
2,B4,290
3,B5,684
4,B6,2.5
5,B7,3.2
6,B8,79.2
7,B9,3.5
